In ChEMBL document CHEMBL4888484, “Replenishing the malaria drug discovery pipeline: Screening and hit evaluation of the MMV Hit Generation Library 1 (HGL1) against asexual blood stage Plasmodium falciparum ,using a nano luciferase reporter read-out” (2022):
About 420 (8.8%) of roughly 4,800 compounds showed an effect of 50% or more. The list shows a part of the results.

test system: Plasmodium falciparum; assay: Confirmatory screen in NF54 nanoGlo assay, in single point, at 2uM, 72h; assay type: functional, Erythrocyte; settings: timepoint 72 hour

Row | SMILES | % Inhibition
1 | CC(=O)N1c2c(C)cccc2[C@@H](C)CC1(C)C | 3%
2 | O=C(NC1CCCCCC1)c1cn(CC2(O)CCN(Cc3ccccc3)CC2)nn1 | -4%
3 | O=C1CCC2(CCN(S(=O)(=O)c3ccc(F)cc3F)CC2)N1 | -2%
4 | Nc1cc(F)c(Br)cc1Cl | -2%
5 | Cn1c(N2CCN(C(=O)C[C@@H]3NC(=O)c4ccccc4N=C3O)CC2)nc2ccccc21 | -11%
6 | Cc1ccc(CNC(=O)N2CC[C@H](CC(=O)N(C)Cc3ccccc3)C2)cc1 | 0%
7 | Cc1cccc(NC(=O)c2cc(C)nc3c2c(C)nn3-c2ccc(F)cc2)c1 | -2%
8 | CNC(=NCC(C)(C)c1ccc(OC)cc1)NC | 2%
9 | CCc1nnc2c(S(=O)(=O)Nc3cc(F)cc(F)c3)cccn12 | -5%
10 | O=C(c1ccc(COc2ccccc2Br)cc1)N1CCN(c2cccc(C(F)(F)F)c2)CC1 | -10%
11 | Cc1noc(C)c1CNC(=O)[C@H]1CCc2nnc(C3CCOCC3)n2CC1 | -12%
12 | CC(C)n1[nH]c(=O)c2c1NC(=O)C[C@H]2C1CCCCC1 | 7%
13 | CC[C@H](O)CCNC(=O)Nc1ncc(CC(C)C)s1 | -3%
14 | Cc1ccc(N2C(=O)c3ccccc3[C@@H]2c2c[nH]c3ccccc23)cc1 | 43%
15 | COC(=O)c1c(NC(C)=O)c2cc(NC3CCOCC3)cnc2n1CCc1ccc(OC)cc1 | 70%
16 | NS(=O)(=O)N1CCN(Cc2ccn(C3CCCC3)n2)CC1 | -1%
17 | Cc1ccnc(-n2nccc2NC(=O)[C@H](C)Oc2ccccc2)c1 | -1%
18 | Cn1ncc(-c2ncc(C(F)(F)F)cc2Cl)c1N | 1%
19 | Cc1cc2ncn([C@@H](C)c3nc(-c4cnccn4)cs3)c2cc1C | 0%
20 | COc1ccc(N(C)S(=O)(=O)c2ccc3c(c2)CCN3C(=O)C2CCC2)cc1 | 1%
21 | Cc1cc2nn(CC(=O)Nc3ccc(C)c(C)c3)c(=O)n2c(-c2ccc(C(F)(F)F)cc2)n1 | -10%
22 | CC1NC2(C(=O)N(Cc3ccc(F)cc3)c3ccccc32)C2C(=O)N(c3cccc4ccccc34)C(=O)C12 (stereo not drawn) | 4%
23 | O=C(CCC(=O)c1ccc(F)cc1F)NS(=O)(=O)c1cccnc1 | -4%
24 | COc1cccnc1NC(=O)c1cnn(C)c1 | 1%
25 | NC(=O)N1CCC[C@H]1C(=O)NC1CC(=O)N(C2CC2c2ccccc2)C1 (stereo partly drawn) | 3%
26 | O=C1[C@@H]2CCCN2C(=O)N1Cc1ccnc(OC2CCOCC2)c1 | -9%
27 | O=C(Nc1onc2c1CCC2)c1ccc2ccccc2c1 | 45%
28 | CCOC(=O)c1cn(CC)c2cc(NC3CCCCC3)c(F)cc2c1=O | 78%
